From the supplement of paper PMC11417369
± gives the standard deviation of the averaged measurements. This is one part of the list.

What follows are sequences tested on PfAP2-LT AP2 domain (GST-tagged) (assay: gcPBM binding intensity (ln(normalized median fluorescence intensity)); higher = stronger DNA binding).
Summary of the method: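 Alexa488 anti-GST antibody, scanned at 488 nm, detected GST-tagged P. falciparum DNA-binding domains that had been expressed in E. coli and incubated for 1 h on an Agilent 4 × 180k array. The array carried primer-extended double-stranded 36-bp intergenic genomic probes and negative controls. Binding intensity is the highest Masliner-normalised natural-log median intensity across replicate spots of either orientation of each probe.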

In order of falling “gcPBM binding intensity (ln)” value:
1. ATAAAAAGGAAACACACACACACACCCATATATATA [CACACA_site904]  10.41 ± 0.042
2. ATAATATGAAAACACACACACACACTAATAAAAAAA [CACACA_site8617]  10.3 ± 0.16
3. CCATAAAAAGGATACACACACACACCGACATATATA [CACACA_site4653]  10.2 ± 0.23
4. CACGCATACGGACACACACACACACCGATATATATA [CACACA_site4521]  9.89 ± 0.33
5. TTGGCATACGGACACACACACACACCCAGACATATA [CACACA_site4492]  9.84 ± 0.18
6. CATGCAAAAAATTCCACACACACACCCACATATAAA [CACACA_site1229]  9.73 ± 0.16
7. CAAAAAAATGTGAAGGCATGCAAATATGTAAAATAA [TGCATGCA_site921]  9.68 ± 0.67
8. AATAATAAAAAATATACACACATATATATATATATA [CACACA_site25]  9.6 ± 0.28
9. ATTTTATTTTCTCACACACACATATATATATATATA [CACACA_site5781]  9.59 ± 0.21
10. ATAAAGCCATACAATACACACATTTTACATGGGGGT [CACACA_site9072]  9.45 ± 0.099
11. TATACCTATAAATACACACACATATAAATAAATATA [CACACA_site6153]  9.43 ± 0.3
12. AACAAAATAAAAATAACACACACATTTATATATATA [CACACA_site8313]  9.43 ± 0.33
13. ATTCAAAAGATGTATACACACATGTGTATAATATAA [CACACA_site7197]  9.42 ± 0.37
14. ATACATAAATACAAACGTACATACATACATACATAC [XGTACX_site7824]  9.35 ± 0.35
15. ATATATATTATCATTGTGCACTTATTTATATACCTT  9.31 ± 0.47
16. TGACTACATAAAATGACACACACAAACTTTAAAATT [CACACA_site9151]  9.28 ± 0.34
17. ATATTATATAATAATGCATGCACCTTATTTTCATTT [TGCATGCA_site405]  9.26 ± 0.28
18. ATTTTTCCTCTCTTTTGTACTTATATATATATATAT [XGTACX_site7405]  9.25 ± 0.42
19. CTTTCTTATTTGAACGCATGCATTTGTACCTTTTAT [TGCATGCA_site671]  9.22 ± 0.43
20. ACCTACATAACATACACACGCATATATATAATTTTA [CACACA_site2847]  9.22 ± 0.33
21. GAAGAAAAAAAATATACACACATACGATCATACATA [CACACA_site5227]  9.21 ± 0.33
22. AATAATATCATTTAGACACACACTCTTACAATATGT [CACACA_site8832]  9.21 ± 0.38
23. GCAACACAAAAAATTACACACAAAAAAAATATATTA [CACACA_site916]  9.18 ± 0.52
24. AAAATATATACTCCATCACACACCAAAAAGAAAAAA [CACACA_site2542]  9.15 ± 0.41
25. ATATATATATATATAGTGCAAATATCTTCTTTATAA  9.12 ± 0.11
26. GTAGTAAATAGGAGGATGCATATGGCACACATTATA [TGCATGCA_negctrl_site59]  9.11 ± 0.64
27. CAACATAAAAATTAAGCATGCAATAGACTTGTGTTG [TGCATGCA_site417]  9.08 ± 0.41
28. AATAGCCCATATGGAATACACACTGAAAATAAAAAA [CACACA_site3373]  9.07 ± 0.57
29. TTTTTTTTGGTATAATGTACATTTTCACTTATGTAT [XGTACX_site3259]  9.05 ± 0.58
30. AAAGGAATATAATGATGTACACAAATATATATACAT [XGTACX_site5347]  9.05 ± 0.46
31. AAATTTCAATAATCTACACACATAAAAAAACAAAAG [CACACA_site1702]  9.05 ± 0.42
32. CAGCTCTTAAGAATTACACACATATACACATATATA [CACACA_site7524]  9.04 ± 0.38
33. AAAAATATAATATAATGTACACAAAAAAAAAAAAAT [XGTACX_site4914]  9.04 ± 0.49
34. CATTTTAAAACAGACACACACCAAAAAAAAAAAAAA [CACACA_site6259]  9.04 ± 0.49
35. AATAATAAATATATATATATATATATATATATATTT [CACACA_negctrl_site786]  9.04 ± 0.21
36. TTTGAAAAGTATGAGGTGCAAAAAATGTAATGAAAT  9 ± 0.52
37. TTTTAATGTACCAGTGTGCACCTTGCGTACATATTA [GTGCAC_site9957]  8.99 ± 0.42
38. ATATAAGAATAAATAGTGCAAAATAAATGATTATTT  8.96 ± 0.46
39. TTCATTTAGCAAGAATGTACTTATATATATATATAT [XGTACX_site3401]  8.95 ± 0.085
40. TTATACAAATTCATGGGTACAAACAAACATATATCA [XGTACX_site6237]  8.94 ± 0.35
41. ATTATATTATTTTAAAGTACACACATATATTAATAT [XGTACX_site4769]  8.93 ± 0.31
42. AATACGAAGGATAAGAGTACTAATTAAATAAATGAA [XGTACX_site523]  8.92 ± 0.58
43. AATAATATATATATAATACACACTATTATAATCACA [CACACA_site1310]  8.91 ± 0.38
44. AACTAATATAATAATACATGCACATAAAAATATATA [TGCATGCA_site606]  8.9 ± 0.4
45. TAATAAACCAAACTAAACAATATATCAAAAAGCACA [CACACA_negctrl_site269]  8.9 ± 0.42
46. CAATTAAAGAAAAACAGTACGTGTATCAAACATCCT [XGTACX_site8990]  8.89 ± 0.49
47. TATATTATTATGCATAGTACGTACTGTGATAAGAAT [XGTACX_site2956]  8.88 ± 0.3
48. TGAATAATATACATACGTACATACATATATATAATA [XGTACX_site1302]  8.87 ± 0.56
49. GGCAACAATGTAGATTGTACATATGAATTTTACAAT [XGTACX_site5655]  8.86 ± 0.42
50. TCCTTTATTTTTAAAGTGCATATACATGTACATTAT [GTGCAC_site9445]  8.85 ± 0.41
51. TTTACTTTTTTTTCTTGTACTCATACATACTATCAT [XGTACX_site4919]  8.85 ± 0.54
52. ATATTTTATTATTGTTGTACTTTTTTTTTTTGATTG [XGTACX_site4091]  8.85 ± 0.49
53. TATATACAAAATGCCTGTACATATATATTTATTTAT [XGTACX_site761]  8.85 ± 0.35
54. TATAAATTTGTTGTTGCATGCAGTATACCAAAAAAA [TGCATGCA_site445]  8.84 ± 0.4
55. TTTTTCTGTCGTTGTTGTACTTGAGGAGTAACAATT [XGTACX_site7852]  8.81 ± 0.38
56. TTTTCAATTAATAATACACACATGTATATATTATTA [CACACA_site3311]  8.8 ± 0.29
57. TTATCACATAAACGATGTACGTACTAGGTTTTTTTT [XGTACX_site2147]  8.79 ± 0.42
58. AAAAGTTGTTTATAATGTACAAGGTAGAAAAAAACA [XGTACX_site1454]  8.78 ± 0.38
59. AAAAAAAAAAAAAAATGTACATATGGTATGCATATA [XGTACX_site3225]  8.77 ± 0.52
60. TTTCTGATATTTTTATATTTTCTTATATATATATAT [GTGCAC_negctrl_site652]  8.77 ± 0.52
61. GCCTTTTTATTTAGAACACACACAAAAAAAAAAAAA [CACACA_site8520]  8.77 ± 0.35
62. ATATGCTAATAAAATTGTACATATTATTCATATTGT [XGTACX_site2344]  8.77 ± 0.48
63. ATATTTTGTTTTATAGTGCACATGGGCATATATTAA [GTGCAC_site9435]  8.74 ± 0.39
64. ACATATGTTAAAAAGGCATGCATTCTTTTTATTTTA [TGCATGCA_site1043]  8.72 ± 0.43
65. GCTTATAAAGGCAGAAGTACTGTATTCCTATATATA [XGTACX_site8865]  8.72 ± 0.43
66. TACAAATACATTACATGTACATATTTAATAATATCA [XGTACX_site2075]  8.71 ± 0.45
67. AATTATTTATCGGAATGTACATAAAAACATATGTAT [XGTACX_site7443]  8.7 ± 0.4
68. GTATATAAGTATATATGTACATATATTTTATATATA [XGTACX_site4745]  8.7 ± 0.42
69. TAAAATGTAATCTGAACACACATATTTTTTTAATAT [CACACA_site1768]  8.68 ± 0.45
70. TATTATATCGAACACTGTACTTTTTTATTCAACCTA [XGTACX_site493]  8.65 ± 0.51
71. TTTAAATTTTAATATGCACACAAAATGTTATATTAA [CACACA_site8015]  8.64 ± 0.46
72. TAATAAAATAATATCACACATATTTATATATATTAT [CACACA_site5814]  8.63 ± 0.44
73. GTATTATATTTCAACTGTACGTAAAACTATTAAAAT [XGTACX_site3679]  8.63 ± 0.3
74. ATATATTTTTAGCACAGTACAATATAATTAAATATA [XGTACX_site6779]  8.6 ± 0.35
75. AAGAAAAATATATATATAAATAAATAAATATATATA [TGCATGCA_negctrl_site330]  8.59 ± 0.44
76. TATTTTTTTATTTGTGCATGTCATATTTAAACATAA [TGCATGCA_site1006]  8.58 ± 0.4
77. ATATAAAAATTAAAATGTACATATCTTATTATAATA [XGTACX_site983]  8.56 ± 0.54
78. TGGTATTGAATTTTTTGTACACATAAAATATATATA [XGTACX_site7614]  8.54 ± 0.33
79. GTGCCATTTAAAAAATGTACAAGAAAATGTTCATCA [XGTACX_site2865]  8.54 ± 0.44
80. TATTTTAATTTTTTTTTGTTTTTTCTAATACATGTA [CACACA_negctrl_site1399]  8.5 ± 0.55
81. TTTTTTTTTTTTTTGGTGCGATCTTTTAAATGATCC  8.5 ± 0.48
82. ACCAAAAAAAAAAAAAAAAAAATATACATATATATA [GTGCAC_negctrl_site582]  8.47 ± 0.48
83. GTTTAAAAAAATTATCAACTTTAAAAAGGTAACATT [XGTACX_negctrl_site203]  8.41 ± 0.32
84. ATTTGTAATTTATATTCACACATTCAAAAAAATGAG [CACACA_site6057]  8.41 ± 0.29
85. AAATATATTTTATTTTGTACTTATGTATAAAATATA [XGTACX_site914]  8.4 ± 0.34
86. ATAAATACTTTTTGGTGTACACTTTTAAATGAAAAA [XGTACX_site3042]  8.39 ± 0.42
87. TTTTTTTTTTTTTTTTTTTTCATTCAATTATATTTA [CACACA_negctrl_site712]  8.32 ± 0.45
88. TATTTAATAAAGAAATAAAAATAAAGAAAAAAAAAA [CACACA_negctrl_site74]  8.29 ± 0.57
89. TTTTATAATTTAAAATAATGAAACTTCTTTCTATTT [TGCATGCA_negctrl_site324]  8.14 ± 0.56
